Data: PubChem BioAssay AID889 (National Center for Advancing Translational Sciences (NCATS), 2007)
The campaign covered roughly 75,000 compounds. About 15 (0.02%) were called active. The shares of active, inactive and inconclusive entries below differ from those in the screen. Calls follow the shape of the dose curve; as a rule, active = well fitted inhibition curve with a large enough effect in the main read-out, with a control signal flat (not every such curve was filed as active); inconclusive = small, poorly fitted or top-dose-only effect, or a change in a side signal; inactive = flat fitted curve, though single readings scatter. Potencies of inconclusive entries are doubtful fits and often do not repeat. “Side channel” marks fits to a control or component signal instead of the main read-out.

target: Caspase-7 (Homo sapiens) (UniProt P55210); assay: qHTS Assay for Allosteric/Competitive Inhibitors of Caspase-7; details: recombinant caspase-7, Ac-DEVD-AFC fluorescence rate; activity change, negative = inhibition: at 57.5 µM (top of the series) unless noted; as to activity change, negative = inhibition: % of control where 0% means no effect
Potency is read from the fitted curve at half-maximal effect; tags tell the direction and shape of the fitted curve or compound fluorescence and quenching.

Chain of UniProt P55210 (P55210 whole entry, looked up): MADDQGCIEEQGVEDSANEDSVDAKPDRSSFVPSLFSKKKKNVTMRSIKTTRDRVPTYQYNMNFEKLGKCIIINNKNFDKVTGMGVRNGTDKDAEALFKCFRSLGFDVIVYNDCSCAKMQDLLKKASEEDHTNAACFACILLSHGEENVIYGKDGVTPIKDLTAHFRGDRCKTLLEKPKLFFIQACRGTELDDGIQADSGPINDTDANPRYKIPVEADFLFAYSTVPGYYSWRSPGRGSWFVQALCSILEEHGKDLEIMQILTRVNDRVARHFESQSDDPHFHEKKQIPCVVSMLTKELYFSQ

Activity change, negative = inhibition, inactive:
Cc1cc(C)cc(N(CC(=O)O)S(=O)(=O)c2cccnc2)c1 2.77%
COC(=O)c1ccc(NC(=O)c2sc3nc(-c4ccccc4)cn3c2C)cc1 -0.111%
Cc1ccc(-c2nc(-c3cccnc3)no2)c(C)c1 0.16%
COc1ccccc1N1CCN(C[C@@H](C(=O)NC(C)(C)C)c2ccccc2)CC1 -1.8%
CCCCCCCCO -1%
O=C(c1ccc2c(c1)OCO2)N1CCN(c2ccc(Cl)cc2)CC1 -6.12%
CC[C@@H](c1ccc2cc(O)ccc2c1)C(C)(C)C(=O)O -1.33% [at 11.5 µM]
Cc1ccc(C(C)(C)C)cc1 0.494%
COC(=O)c1ccc(C(/C=C/[C@@H](C)C(=O)NCc2ccccc2)NC(=O)OCc2ccccc2)cc1 (stereo partly drawn) -2.43%
CCOC(=O)c1c(C)n(OCc2ccccc2)c2ccc3c(no[n+]3[O-])c12 -1.84%
CC(C)[C@](N)(C(=O)O)c1ccccc1 0.008% [at 11.5 µM]
Cc1nc2cc(NC(=O)N3c4ccccc4CC3C)ccc2o1 (stereo not drawn) -1.12%
Cc1ccc2[nH]c(-c3ccccc3)cc(=O)c2c1 -0.529%
N#Cc1nc(-c2ccc(OCc3ccc(Cl)cc3)cc2)oc1N1CCC(C(N)=O)CC1 -1.69%

Potency, inconclusive:
CNC(=O)c1cc2c(=O)n3cc(C)ccc3nc2n(Cc2ccco2)c1=N 20 µM [fluorescent, side channel, partial curve]
Cc1ccc(S(=O)(=O)c2cc3c(=O)n4ccccc4nc3n(Cc3ccco3)c2=N)cc1 2.51 µM [fluorescent, side channel, full curve]
CN(C)c1ncc2nc(-c3cccs3)c(=O)n(CCc3ccccc3)c2n1 1.58 µM [fluorescent, side channel, full curve]
Clc1ccc(C2Nc3ccccc3-n3cccc32)cc1 (stereo not drawn) 31.6 µM [fluorescent, single point]
COCCn1c(=O)c(-c2ccc(Cl)cc2)nc2cnc(Oc3ccccc3)nc21 31.6 µM [fluorescent, single point]
COCCN(CCOC)Cc1c(O)ccc2c3c(c(=O)oc12)CCC3 15.8 µM [fluorescent, partial curve]
COc1ccc(-n2c(=O)c(-c3ccc(Cl)cc3)nc3cnc(N(C)C)nc32)cc1 1 µM [fluorescent, full curve]
CCc1nnc(NC(=O)CSc2nc3c(cc2C#N)CCCC3)s1 2.51 µM [inhibitor, full curve]
COc1ccc(-n2c(=O)c(-c3cccs3)nc3cnc(N4CCNCC4)nc32)cc1 3.98 µM [fluorescent, side channel, partial curve]
CN1C(=O)c2cccc3c(S(=O)(=O)NCc4ccco4)ccc1c23 15.8 µM [fluorescent, side channel, partial curve]
COc1ccc(N=c2oc3cc(O)ccc3cc2C(=O)NCC2CCCO2)c(OC)c1 (stereo not drawn) 12.6 µM [fluorescent, partial curve]
COC(=O)c1c(NC(=O)c2nc3ccccc3s2)sc2c1CCN(C(C)=O)C2 25.1 µM [inhibitor, single point]
COc1ccc2nc(N3CCCCC3)c(C#N)cc2c1 15.8 µM [fluorescent, side channel, partial curve]
CCc1c(C)c2cc(Cl)c(O)c(CN(CC)CC)c2oc1=O 15.8 µM [fluorescent, side channel, partial curve]
CN(C)c1ncc2ncc(=O)n(Cc3ccc(F)cc3)c2n1 20 µM [fluorescent, partial curve]
CCCOc1ccc(C2C(C(=O)OC)=CN(CCOC)C=C2C(=O)OC)cc1 12.6 µM [fluorescent, side channel, partial curve]
Cc1c(CCC(=O)O)c(=O)oc2cc(O)ccc12 25.1 µM [fluorescent, side channel, partial curve]
O=S(=O)(Nc1nc2ccccc2nc1N1CCN(c2ccccn2)CC1)c1ccc(Cl)cc1 31.6 µM [fluorescent, single point]
CCOc1ccc(C2C=C(c3ccc(C)cc3)Nc3nnnn32)cc1 (stereo not drawn) 31.6 µM [fluorescent, side channel, single point]
COc1ncc2nc(-c3cc(F)cc(F)c3)c(=O)n(-c3ccccc3)c2n1 31.6 µM [inhibitor, single point]
CCNc1cccc2c1C(=O)N(C)C2=O 15.8 µM [fluorescent, partial curve]
CC1=C(C(=O)N2CCOCC2)C(c2ccccc2F)C2=C(CC(C)(C)CC2=O)N1 (stereo not drawn) 31.6 µM [inhibitor, single point]
Cc1nn(Cc2ccc(Cl)c(Cl)c2)c(C)c1NC(=O)c1cc(-c2ccco2)on1 39.8 µM [inhibitor, single point]
Cc1ccc(C(=O)Nc2nc3c(s2)CCCC3)o1 25.1 µM [fluorescent, partial curve]
COC(=O)c1ccc2c(c1)N(C)CCS2 25.1 µM [fluorescent, partial curve]
Nc1ccccc1N 31.6 µM [inhibitor, partial curve]
O=c1c(-c2cccs2)nc2cnc(N3CCOCC3)nc2n1CCc1ccccc1 1.26 µM [fluorescent, side channel, full curve]
CN(C)c1ncc2nc(-c3cccs3)c(=O)n(C)c2n1 1.58 µM [fluorescent, side channel, full curve]
COc1ccc(-c2nc3cnc(N4CCN(C)CC4)nc3n(CCc3ccccc3)c2=O)cc1 12.6 µM [fluorescent, partial curve]
